The list shows a part of the results. Shown are side measurements of this screen, not its main read-out; they come without a call.
What was measured:
Assay in all cases: Primary Screen for Target Class Profiling of Small Molecule Inhibitors of Methyltransferases
[1] = molecular target: Glycine N-methyltransferase (Homo sapiens) (UniProt Q14749); details: purified enzyme, MTase-Glo SAH luminescence; measured here: GNMT inhibition; at 40 µM; stronger effect = lower value
Procedure, shortened: (§1)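 Each enzyme was reacted with SAM and its substrate, with compounds tested once at 40 uM; SAH formed was read by MTase-Glo luminescence.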

[2] = molecular target: Guanidinoacetate N-methyltransferase (Homo sapiens) (UniProt Q14353); details: purified enzyme, MTase-Glo SAH luminescence; measured here: GAMT inhibition; at 40 µM; stronger effect = lower value
Procedure, shortened: as §1

[3] = molecular target: Histamine N-methyltransferase (Homo sapiens) (UniProt P50135); details: purified enzyme, MTase-Glo SAH luminescence; measured here: HNMT inhibition; at 40 µM; stronger effect = lower value
Procedure, shortened: as §1

[4] = molecular target: Nicotinamide N-methyltransferase (Homo sapiens) (UniProt P40261); details: purified enzyme, MTase-Glo SAH luminescence; measured here: NNMT inhibition; at 40 µM; stronger effect = lower value
Procedure, shortened: as §1

[5] = molecular target: Phenylethanolamine N-methyltransferase (Homo sapiens) (UniProt P11086); details: purified enzyme, MTase-Glo SAH luminescence; measured here: PNMT inhibition; at 40 µM; stronger effect = lower value
Procedure, shortened: as §1
% is scaled to controls: 0 for no effect and ±100 for the full control effect.

| SMILES | activity change, negative = inhibition [1] | activity change, negative = inhibition [2] | activity change, negative = inhibition [3] | activity change, negative = inhibition [4] | activity change, negative = inhibition [5] |
| --- | --- | --- | --- | --- | --- |
| COCCC1(NC(=O)C2CC2)CCN(S(=O)(=O)c2cc(OC)ccc2OC)CC1 | 2.63% | 1.8% | 14.6% | 6% | 7.77% |
| Cc1cc(C)cc(NS(=O)(=O)c2cc3c(cc2Cl)n(C)c(=O)n3C)c1 | 12.6% | 0% | 7.41% | 7.39% | 11% |
| CCC(C)NC(=O)Cn1ccc2cc(S(=O)(=O)N3CCCC3)ccc21 (stereo not given) | 7.39% | 0% | 4.51% | 3.34% | 2.03% |
| COc1ccc(F)cc1-c1cc(NC(=O)[C@@H]2CCCNC2)ncc1Cl | -13% | -7.37% | -12.6% | -34.6% | -1.43% |
| Nc1nc2c(ncn2C2OC3COP(=O)(O)OC3C2O)c(=O)[nH]1 (stereo not given) | -2.29% | 7.58% | -3.04% | -16.5% | -10.3% |
| CC1(C(=O)NCc2ccccc2)Cn2c(cc3ccccc32)C(=O)N1Cc1ccccc1Br (stereo not given) | -8.81% | -0.24% | -4.39% | -15.6% | -4.78% |
| CCc1ccccc1NC(=O)Cn1c(=O)oc2cc(S(=O)(=O)N3CCCC3)ccc21 | 0.498% | 5.53% | 0.073% | 7.23% | -1.05% |
| CNC(=O)[C@@H]1CN(C(=O)CCc2cccc(OC)c2)C[C@H]1c1n[nH]c(C)n1 | 0.138% | 1.36% | 1.81% | 5.76% | 5.16% |
| Cc1ccc(C)c(-c2cc(C(=O)N3CCCC3c3nncn3C(C)C)[nH]n2)c1 (stereo not given) | -3.11% | -2.88% | -0.582% | -7.92% | -14.5% |
| O=C(OC1C=C(CO)C2C(OC3OC(CO)C(O)C(O)C3O)OC=CC12O)c1ccc(O)cc1 (stereo not given) | -1.78% | -4.53% | 4.1% | -13.9% | -1.86% |
| CC1(C(=O)NC2CCCCCCC2)Cn2c(ccc2-c2ccco2)C(=O)N1CCCN1CCOCC1 (stereo not given) | 0.604% | 0.088% | 8.51% | 7.47% | 2.23% |
| O=C1CCC(C(=O)N2CCOCC2)CN1CCCc1ccccc1 (stereo not given) | -1.54% | -0.548% | 2.13% | 0.874% | -7.15% |
| O=C(CSc1nnnn1-c1ccccc1)Nc1ccc2[nH]c(=O)[nH]c2c1 | -7.36% | 0% | -3.81% | -10.8% | -10.6% |
| CC(C)[C@@H]1CC[C@@H](C)C[C@@H]1P(=O)(c1ccccc1)c1ccccc1 | -3.1% | 3% | -5.25% | -9.43% | 1.71% |
| COc1ccc2cc3n(c2c1)CC(C)(C(=O)NC1CCCCC1)N(Cc1ccc(Cl)cc1)C3=O (stereo not given) | 3.04% | 0.429% | 4.43% | 7.74% | -1.36% |
| Cc1cccc(-c2n[nH]n3c2nc(=O)c2ccc(C(=O)NCc4ccc(Cl)cc4)cc23)c1 | -23.3% | 0.072% | -0.458% | -11.1% | -3.78% |
| O=C(CSc1nnc2n(CCc3ccccc3)c(=O)c3ccccc3n12)Nc1cccc(Cl)c1 | -2.29% | 2.77% | 2.81% | -1.07% | -3.23% |
| CCC(Nc1ncnc2nc[nH]c12)c1nc2cccc(F)c2c(=O)n1-c1ccccc1 (stereo not given) | -5.05% | -3.3% | 5.76% | -18.6% | 4.3% |

| SMILES | activity change, negative = inhibition [1] | activity change, negative = inhibition [2] | activity change, negative = inhibition [3] | activity change, negative = inhibition [4] | activity change, negative = inhibition [5] |
| --- | --- | --- | --- | --- | --- |
| C[C@@H]1CCC2C(C)(C)[C@H](O)CC[C@]2(C)[C@@]12Cc1c(O)cc3c(c1O2)CN([C@@H](CCC(=O)O)C(=O)O)C3=O (stereo not given in full) | 5.28% | 3.52% | 8.54% | -11.5% | 0.317% |
| CC1C(=O)CC2C3C(O)CC(C(=O)O)C12CC3(C)C (stereo not given) | 4.78% | 3.52% | 0.661% | -8.51% | 4.93% |
| CCC(C)C(=O)OC[C@H]1O[C@H](O[C@H]2O[C@H](CO)[C@@H](O)[C@H](O)[C@H]2O)[C@H](O)[C@@H](O)[C@@H]1O (stereo not given in full) | -0.268% | 2.93% | 0.65% | -9.71% | 3.97% |
| COc1cc(C(=O)OC[C@@]2(O)CO[C@@H](O[C@H]3[C@H](Oc4ccc(O)cc4)O[C@H](CO)[C@@H](O)[C@@H]3O)[C@@H]2O)cc(OC)c1O | -0.758% | -6.24% | -1.08% | -16.2% | 1.26% |
| CC(NC(=O)CCc1nnc2n(Cc3ccccc3)c(=O)c3ccccc3n12)c1ccccc1 (stereo not given) | -7.22% | 0.121% | 1.69% | 7.98% | 2.42% |
| CCOc1ccccc1NC(=O)N1CCn2c(C)ccc2C1C(C)C (stereo not given) | 13.1% | 0% | -2.89% | -1.78% | 2.7% |
| CC1CCCC(NC(=O)C2(C)Cn3c(cc4sccc43)C(=O)N2Cc2cccc(F)c2)C1C (stereo not given) | 5.65% | 0% | 6.45% | 2.54% | 1.8% |
| COC(=O)N1CCN(Cc2cc(=O)c3cc(F)ccc3[nH]2)CC1 | -5.94% | -14.5% | -3.45% | -9.02% | -6.13% |
| C=C(C(=O)O)C1CC(O)C2(C)CCCC(C)(O)C2C1 (stereo not given) | 0% | 5.94% | 8.85% | -5.61% | 3.67% |
| Cc1ccc(CNC(=O)N2Cc3c(sc4c3CCCC4)-n3cccc3C2c2ccccc2)cc1 (stereo not given) | -7.77% | -6.81% | 0.575% | -11.8% | -5.45% |
| CCCn1c(=O)c2ccc(C(=O)NC(C)CC)cc2n2c(=O)n(CC(=O)Nc3cccc(C)c3)nc12 (stereo not given) | -0.69% | 4.65% | 2.04% | 1.31% | 0.525% |
| COc1ccccc1CNC(=O)C1c2c(n(C)c3ccccc23)SCC(=O)N1c1cc(F)ccc1F (stereo not given) | 15.6% | 0.63% | 2.71% | 7.66% | 11.2% |
| CC1(C)CC[C@]2(C(=O)O[C@@H]3O[C@H](CO)[C@@H](O)[C@H](O)[C@H]3O)CC[C@]3(C)C(=CCC4[C@@]5(C)C[C@@H](O)[C@H](O)C(C)(C)C5CC[C@]43C)C2[C@@H]1O (stereo not given in full) | -5.13% | 2.01% | 5.36% | -10.4% | 0.521% |
| COc1cccc(-c2cn3c(n2)N(C(=O)Cc2cccs2)CCC3)c1 | -5.27% | -8.66% | -35.9% | -16.9% | -11.9% |
| CC(C)NC(=O)c1ccc2c(=O)n(Cc3ccccc3)c3nnc(SCC(N)=O)n3c2c1 | 7.28% | 0.452% | 11.7% | 12.8% | 10.2% |
| N#C/C(=C\c1ccc(O)c(O)c1)C(=O)c1ccc(O)c(O)c1 | -39.4% | -7.76% | -11.2% | -17.2% | -10.1% |
| NC(=O)C(O[C@@H]1O[C@H](CO[C@@H]2O[C@H](CO)[C@@H](O)[C@H](O)[C@H]2O)[C@@H](O)[C@H](O)[C@H]1O)c1ccccc1 (stereo not given in full) | 0% | 2.11% | 2.7% | -9.48% | 4% |
| CC(=O)Nc1cccc(-c2cc3c(cn2)CN(Cc2ccccc2)CCN3)c1 | -10.3% | -5.57% | -93.5% | -40.7% | -39.1% |
